According to the supplement of paper PMC7125110:
± gives the standard error. This sample is rich in variants without activity.

B1: glmS ribozyme (parent)
chain: AUAAAAGCGCCAGAACUACAGAAAUGUAGUUGACGAGGAGGAGGUUUAUCGAAUUUUCGGCGGAUGCCUCCAAA

What was measured:
Conditions in all cases: with glucosamine-6-phosphate
[1] = variants of: B1; test: self-cleavage kobs at 40 uM GlcN6P; higher = faster cleavage; RNA array
Procedure, shortened: (§1)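 Over ~14 h at 37 °C, tiles were imaged as glucosamine-6-phosphate (40 μM to 10 mM) in HEPES/KCl/Mg(OAc)2 buffer flowed across sequenced MiSeq chips. The chips carried barcoded ribozyme variants transcribed in situ by E. coli RNA polymerase and tracked with a hybridised Cy3 probe. After normalisation to baseline and to non-cleaving reference variants, one- or two-exponential decay fits of per-tile medians gave kobs. kcat and KM followed from weighted Michaelis–Menten fits across concentrations.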

[2] = variants of: B1; test: self-cleavage kobs at 640 uM GlcN6P; higher = faster cleavage; RNA array
Procedure, shortened: as §1

[3] = variants of: B1; test: self-cleavage kobs at 160 uM GlcN6P; higher = faster cleavage; RNA array
Procedure, shortened: as §1

[4] = variants of: B1; test: self-cleavage kobs at 10000 uM GlcN6P; higher = faster cleavage; RNA array
Procedure, shortened: as §1

[5] = variants of: B1; test: self-cleavage kobs at 2500 uM GlcN6P; higher = faster cleavage; RNA array
Procedure, shortened: as §1

Variant	self-cleavage kobs at 40 uM GlcN6P [1] [s⁻¹]	self-cleavage kobs at 640 uM GlcN6P [2] [s⁻¹]	self-cleavage kobs at 160 uM GlcN6P [3] [s⁻¹]	self-cleavage kobs at 10000 uM GlcN6P [4] [s⁻¹]	self-cleavage kobs at 2500 uM GlcN6P [5] [s⁻¹]
AUAAAAGGGCCCGAACUACAGAAAUGUAGUUGACGAGGAGGAGGUUUAUCGAAUUUUCGGCGGAUGCCUCCAAA [C8G A12C]	< 1e-05	< 1e-05	< 1e-05	< 1e-05	–
AUAAAAGAGCCAGAACUACAGAAAUGUAGUUGACGAGGAGCAGGUUUAUCGAAUUUUCGGCGGAUGCCUCCAAA [C8A G41C]	< 1e-05	< 1e-05	< 1e-05	< 1e-05	< 1e-05
AUAAAAGGGCCAGAACUACAGAAAUGUAGUUGACGAGGUGGAGGUUUAUCGAAUUUUCGGCGGAUGCCUCCAAA [C8G A39U]	< 1e-05	< 1e-05	< 1e-05	< 1e-05	–
AUAAAAGGGCCAGCACUACAGAAAUGUAGUUGACGAUGAGGAGGUUUAUCGAAGUUUCGGCGGAUGCCUCCAAA [C8G A14C G37U U54G]	< 1e-05	–	–	< 1e-05	–
AUAAAAGGGCCAGAACUACAGAAAUGUAGUUGACGAGGAGGAGGUUUAUCGAAUUUUCGGCGGAUGCCUCUAAA [C8G C71U]	< 1e-05	< 1e-05	< 1e-05	< 1e-05	< 1e-05
AUAAAAGAGCCAGAACUACAGAAAUGUAGUCGACGAGGAGGAGGUUUAUCGAAUUUUCGGCGGAUGCCUCCAAA [C8A U31C]	< 1e-05	< 1e-05	< 1e-05	< 1e-05	< 1e-05
AUAAAAGGGCCAGAACUACAGAAAUGUAGUUGAAGAGGAGGAGGUUUAUCGACUUUUCGCCGGAUGCCUCCAAA [C8G C34A A53C G60C]	< 1e-05	< 1e-05	< 1e-05	–	< 1e-05
AUAAAAGAGCCAGAACUACAGAAAUGUAGUAGACGAGGAGGAGGUUUAUGGAUUUUUCGGCGGAUGCCUACAAA [C8A U31A C50G A53U C70A]	0.000306 ± 7.3e-05	–	–	0.000515 ± 0.00016	–
AUAAAAGGGCCAGAACUACAGAAAUGUAGUUGAGGAGGAGGAGGUUUAUCGAAUUUUCGGCGGAUGCCUCCAAA [C8G C34G]	< 1e-05	–	< 1e-05	< 1e-05	< 1e-05
AUAAAAGGGCCAGAACUACAGAAAUGUAGUUGACGAGGAGGAGGUUUAUCGACUUUUAGGCGGAUGCCUCCAAA [C8G A53C C58A]	< 1e-05	–	–	< 1e-05	–
AUAAAAGGGCCAGAACUACAGAAAUGUAGUUGACGAGGAGGAGGUUUAUCGAUUUUUCGGCGGAUGCCUCCAAA [C8G A53U]	< 1e-05	< 1e-05	–	< 1e-05	–
AUAAAAGGGUCAGAACUACAGAAAUGUAGUUGACGAGGAUGAGGUUAAUCGAAUUUUCGGCGGAUCCUUCCAAA [C8G C10U G40U U47A G66C C68U]	< 1e-05	–	–	< 1e-05	< 1e-05
AUAAAAGGGCCAGAACUACAGAAAUGUAGUUGACGAGGAGGAGGUUUAUCGAAUUUUCGGCGGAUGGCUCCAAA [C8G C67G]	< 1e-05	< 1e-05	< 1e-05	< 1e-05	< 1e-05
AUAAAAGAGCCAGAACUACAGAAAUGUAGUUGACGAGGAGGAGGUUUAUCGAAAUUUCGGCGGAUGCCUCCAAA [C8A U54A]	< 1e-05	< 1e-05	–	< 1e-05	–
AUAAAAGGGCCAGAACUACAGAAAUGUAGUUGACGAGGAGGAGGUUUGUCGAAUUUUCGGCGGAUGCCUCCAAA [C8G A48G]	< 1e-05	< 1e-05	< 1e-05	–	< 1e-05
AUAAAAGGGCCAGAACUACAGAAAUGUAGUUGACGAGGAGGGGGUUUAUCGAAUUUUCGGCGGAUGCCUCCAAA [C8G A42G]	< 1e-05	< 1e-05	< 1e-05	–	–
AUAAAAGAGCCAGAACUACAGAAAUGUAGUUGACGAGGAGGAGGUUUAUCCAAUUUUCGGCGGAUGCCUCCAAA [C8A G51C]	< 1e-05	< 1e-05	< 1e-05	< 1e-05	< 1e-05
AUAAAAGAGCCAGAACUACAGAAAUGUAGUUGACGAGGAGGAGAUUUAUCGAAUUUUCGGCGGAUGCCUCCAAA [C8A G44A]	< 1e-05	< 1e-05	< 1e-05	< 1e-05	< 1e-05
AUAAAAGAGCCAGAACUACAGAAAUGUAGUUGACGAGGAGGACGUUUAUCGAAUUUUCGGCGGAUGCCUCCAAA [C8A G43C]	< 1e-05	< 1e-05	–	< 1e-05	–
AUAAAAGAGCCAGAACUACAGAAAUGUAGUUGACGAGGAGGAUGUUUAUCGAAUUUUCGGCGGAUGCCUCCAAA [C8A G43U]	< 1e-05	–	–	< 1e-05	< 1e-05
